Experimental findings from PubChem BioAssay AID1508624 (National Center for Advancing Translational Sciences (NCATS), 2021) are described below.

The campaign covered roughly 48,000 compounds. About 120 (0.25%) were called active. Roughly 4% stayed inconclusive and do not appear here. The call rests on the fitted dose curve; in most records, active means well fitted activation curve with a large enough effect; inconclusive means small, poorly fitted or top-dose-only effect, or another doubt; inactive means no such curve, though single readings can be large or run the other way. This is a selection; strong and weak results do not stand in their true shares. The source gives no active or inactive call for entries shown without one.

This experiment is described as follows: Primary qHTS for Identification of Small Molecule Activators of Huntingtin-Antisense Promoter Activity. Further: nearly all actives have a fitted effect of over 55% in size. The note with it: HEK293 HTT-AS promoter firefly luciferase reporter, 24 h; activity change, positive = activation: at 57.5 µM (top of the series), percent change from vehicle, -100% = no light. In short, it runs like this:
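Firefly luciferase signal from promoter-reporter HEK293 cells was scaled between vehicle (0%) and zero RLU (-100%). Compounds were tested at final concentrations of up to 57.5 uM over 24 h at 37 degrees C. PTC124 at 50 uM final served as control inhibitor.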
In general terms: In qHTS, concentration-response curves come from the screen itself.
`Cc1ccccc1OCCCCn1c(-c2ccc(Cl)cc2)nc2ccccc2c1=O`: the activity change, positive = activation came to 3.15%.

On to `COc1cc(OC)c(NS(=O)(=O)c2ccc3oc(=O)c4ncn(C)c4c3c2)cc1Cl`, for which the activity change, positive = activation is -13.6%.

`COc1ccc(C2C=C(c3ccc(Cl)c(Cl)c3)Nc3ncnn32)cc1` (configuration not stated): the activity change, positive = activation came out at 44.5%.

Consider `CCOC(=O)C1=C(CN2CCN(c3cccc(Cl)c3)CC2)NC(=O)NC1c1ccc(Cl)cc1` (configuration not stated), for which the “activity change, positive = activation” value is inactive: -12.3%.

With `CC(C)(C)c1ccc(OCc2nnc(-c3ccccc3)o2)cc1`, the activity change, positive = activation is 19%.

`Cc1ccccc1NC(=O)c1c(C)oc2ccc(O)c(CN3CCOCC3)c12`: the activity change, positive = activation was -17.4%.

For the molecule `NS(=O)(=O)c1ccc(Nc2nc(OCC3CCCCC3)c3[nH]cnc3n2)cc1`, the “activity change, positive = activation” value was inactive: 1.76%.

On to `Cc1ccc(CNC(=O)Nc2cc(C(=O)NCc3ccc(C(C)C)cc3)ccc2N2CCCC2)cc1`, for which the “activity change, positive = activation” value is inactive: -12.9%.

Consider `Cc1ccccc1C(=O)Nc1ccc2nc(SCC(=O)N3CCc4ccccc43)sc2c1`, for which the “activity change, positive = activation” value was inactive: -7.96%.

As to `COc1ccc(N(C(=O)/C=C\C(=O)Nc2ccc(C)cc2)C(C(=O)NCc2ccco2)c2ccc(C)cc2)cc1` (configuration not stated), the activity change, positive = activation is -39.1%.

In the case of `CC(C)(c1ccc(O)cc1)c1ccc(O)cc1`, the “activity change, positive = activation” value is inactive: -10.7% [at 116 µM, percent change from vehicle, -100% = no light].

For the molecule `O=C(C1CCN(S(=O)(=O)Cc2ccccc2)CC1)N1CCN(c2ccccc2)CC1`, the activity change, positive = activation is -0.645%.

Turning to `CCOC(=O)COc1ccccc1C1C(C(=O)OC)=C(C)NC2=C1C(=O)c1ccccc12` (configuration not stated), the activity change, positive = activation was -7.25%.

In the case of `O=C(NCCSCc1ccc(Cl)cc1)C1CCN(S(=O)(=O)Cc2ccccc2)CC1`, the activity change, positive = activation is -9.08%.

Take `COc1ccc(NC(=O)CC2C(=O)N(c3ccc(F)cc3)C(=O)N2Cc2ccco2)cc1` (configuration not stated): the activity change, positive = activation is -10.4%.

Regarding `COC(=O)c1ccc(NC(=O)CC2C(=O)N(c3ccc(Cl)cc3)C(=O)N2Cc2ccco2)cc1` (configuration not stated), the activity change, positive = activation is -10.8%.

Take `COC(=O)c1cc2c(cc1NC(=O)c1cnn(-c3ccc(C)cc3)c1-n1cccc1)OCO2`: the activity change, positive = activation was 3.92%.

Take `COc1ccccc1-c1cc(C(=O)Nc2ccccc2C(F)(F)F)no1`: the activity change, positive = activation was 23%.

With `CCOC(=O)c1ccc(NC(=O)Cn2cc(C(=O)c3ccc(CC)cc3)c(=O)c3ccc(C)nc32)cc1`, the “activity change, positive = activation” value was inactive: -18.3%.

With `COc1ccc(OC)c(CNC(=O)c2ccc(-c3nc(CSc4ccccc4)c(C)o3)cc2)c1`, the activity change, positive = activation was -17.1%.

On to `CC(=O)Nc1ccc(NC(=O)c2ccc3c(c2)NC(=O)c2ccccc2S3)cc1`, for which the activity change, positive = activation is -7.28%.

For `Cc1oc2ccc(O)c(CN3CCCCC3)c2c1C(=O)Nc1cccc(C(F)(F)F)c1`, the activity change, positive = activation is -41%.

In the case of `Cc1nn(C)c2c1c(C(F)(F)F)cc(=O)n2CC(=O)N1CCCCC1C` (configuration not stated), the “activity change, positive = activation” value was inactive: -13.8%.

Take `CCCOc1ccc(-c2nc(N3CCCCC3)c3ccccc3n2)cc1`: the activity change, positive = activation came to 6.47%.

As for `Cc1ccc(CCNC(c2ccc(F)cc2)c2nnc(-c3ccccc3Cl)o2)cc1` (configuration not stated), the activity change, positive = activation was -12.9%.

`CCOC(=O)c1cc(C)n(CC2CCC(C(=O)Nc3cccc(C)c3)CC2)c1C` (configuration not stated): the activity change, positive = activation came to 6.07%.

In the case of `CCc1ccc(NC(=O)CC2C(=O)N(c3ccc(Cl)cc3)C(=O)N2Cc2ccco2)cc1` (configuration not stated), the activity change, positive = activation was -1.44%.

On to `COc1ccc(NC(=O)c2cc3c(=O)n(Cc4ccco4)ccc3nc2C)cc1`, for which the activity change, positive = activation is -17.5%.

Consider `Cc1nc2cccnc2n1-c1cccc(C(=O)N2CCN(c3ccc(Cl)cc3)CC2)c1`, for which the “activity change, positive = activation” value is inactive: -45.5%.

In the case of `COc1ccc(-c2cc(C(=O)Nc3cccnc3Cl)no2)cc1OC`, the activity change, positive = activation was 7.19%.

On to `COc1ccc(-c2c3c(=O)n(C)c(=O)n(C)c3c3n2-c2ccccc2NC3c2ccco2)cc1` (configuration not stated), for which the activity change, positive = activation was 4.23%.

As for `COCCNC(=O)c1cnc2sc(N3CCC(C)CC3)nn2c1=O`, the activity change, positive = activation is 6.81%.

On to `Clc1ccc(-c2noc3ncnc(NCCc4ccccc4)c23)cc1`, for which the “activity change, positive = activation” value was inactive: -26.5%.

For the molecule `COc1cc(C2NC(=O)c3c(sc4c3CCN(C)C4)N2)cc(OC)c1OC` (configuration not stated), the activity change, positive = activation was inactive: 11.2% [at 11.5 µM, percent change from vehicle, -100% = no light].

With `Cn1c(Nc2ccc(C(F)(F)F)cc2)nc2cc(Oc3ccnc(-c4ncc(C(F)(F)F)[nH]4)c3)ccc21`, the “activity change, positive = activation” value is inactive: -24.1%.

On to `CCOc1ccc(-n2nc3ccc(NC(=O)COc4ccc(OC)cc4)cc3n2)cc1`, for which the activity change, positive = activation was -60.4%.

As to `COc1cc(C)cc2oc(=O)c(CC(=O)NCc3cccc(Cl)c3)c(C)c12`, the activity change, positive = activation is -27.7%.

On to `COc1ccc(Cn2ccc3nc(C)c(C(=O)NCc4ccc(F)cc4)cc3c2=O)cc1`, for which the “activity change, positive = activation” value is inactive: -19.7%.

Regarding `Cc1c(CCOc2ccc(C(=O)O)cc2)c2cc(Cl)ccc2n1C(c1ccccc1)c1ccccc1`, the “activity change, positive = activation” value was inactive: -11.7%.

`Cc1nc2ccn(Cc3cccs3)c(=O)c2cc1C(=O)Nc1ccccc1`: the activity change, positive = activation was -13.1%.

As for `Cc1cc(S(=O)(=O)Nc2ccc(-c3ccc(N4CCCCCC4)nn3)cc2)c(C)cc1Cl`, the activity change, positive = activation is 5.64%.

In the case of `COc1ccc(OC)c(-c2cc(C(=O)Nc3cnn(Cc4ccc(Cl)cc4Cl)c3)no2)c1`, the activity change, positive = activation was -5.33%.

As for `COc1ccc(NC(=O)Cn2c(=O)n(Cc3ccc(C(=O)NCc4ccccc4Cl)cc3)c(=O)c3ccccc32)cc1OC`, the “activity change, positive = activation” value was inactive: -9.81%.

Consider `O=C1Nc2ccccc2C1(c1ccc(O)cc1)c1ccc(O)cc1`, for which the “activity change, positive = activation” value was inactive: -33.7%.

For the molecule `Cc1ccc(NC(=O)CSc2nc(-c3cccs3)nc3cc(=O)[nH]n23)cc1`, the activity change, positive = activation was -7.16%.

In the case of `Cc1nnc(N2CCC(C(=O)NC3CCCCC3)CC2)c2nn(-c3ccc(Cl)cc3)c(C)c12`, the “activity change, positive = activation” value is inactive: -9.95%.

Take `COc1ccc(S(=O)(=O)Nc2cccc(-c3ccc(N4CCC(C)CC4)nn3)c2)cc1OC`: the activity change, positive = activation was 29.9%.
